Several values for one entry are separate records, joined by “and”; a condition that tells them apart may be missing. Equal values may be shown once. The whole screen tested about 420,000 compounds, of which about 75 (0.02%) were called active. The call rests on the fitted dose curve; in most records, active means well fitted activation curve with a large enough effect; inconclusive means small, poorly fitted or top-dose-only effect; inactive means no such curve, though single readings can be large or run the other way. This is a selection; strong and weak results do not stand in their true shares.

A short description of this assay: qHTS for Inducers of the Endoplasmic Reticulum Stress Response (ERSR) in Human Glioma: qHTS. Further: % of control where 0% means no effect; nearly all actives have a fitted effect of over 35% in size. The note with it: U87-MG GRP78 promoter luciferase reporter, 16 h; activation: stronger effect = higher value. The method, boiled down:
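ERSR induction read as luciferase luminescence (Bright-Glo, 10 min at room temperature) in stably transfected human U87-MG glioma cells exposed to compounds for 16 h, using GRP78 as sensor.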
As for `CC(C)(C)OC(=O)C[C@H]1C/C=C\C[C@@H](CC(=O)N[C@H](CO)Cc2ccccc2)C(=O)NC[C@@H](c2ccccc2)OC1=O`, the activation is inactive: -0.399%.

As to `OCCN1CCN(CCCN2c3ccccc3Sc3ccc(Cl)cc32)CC1`, the activation was inactive: -3.48% [middle of 4 runs].

Consider `Cn1cc([N+](=O)[O-])c(C(=O)Nc2nc(-c3ccc(Cl)cc3)cs2)n1`, for which the activation was inactive: -15.6%.

In the case of `COc1ccccc1-c1cc(C(F)(F)F)nc(S(=O)(=O)CCCC(=O)N2CCCCC2C)n1` (stereo unspecified), the activation is inactive: -18.5%.

As for `COc1nc(C)nc(Cl)c1NC1=NCCN1`, the activation is inactive: -4.9% and inactive: -2.41% and inactive: -2.86%.

Regarding `CCCCCCCCN1[C@@H](CC(=O)O)c2ccc(C(F)(F)F)cc2S1(=O)=O`, the activation is inactive: 0.206%.

`C/C1=C2N=C(/C=C3N=C(/C(C)=C4\[N-]C(C)(C5N=C1C(C)(CCC(=O)NCC(C)OP(=O)([O-])O[C@H]1C(O)C(n6cnc7cc(C)c(C)cc76)O[C@@H]1CO)C5CC(N)=O)C(C)(CC(N)=O)C4CCC(N)=O)C(C)(CC(N)=O)C\3CCC(N)=O)C(C)(C)C/2CCC(N)=O.[CH2-]C1OC(n2cnc3c(N)ncnc32)C(O)C1O.[Co]` (stereo partly specified): the activation is inactive: -12.4%.

With `CC(C)(C)n1ncc2c(=O)n(CC(=O)NCc3ccc(F)cc3)cnc21`, the activation was inactive: -14.1%.

Turning to `CCOC(=O)c1cccc(NC(=O)/C=C/c2ccc3c(c2)OCO3)c1`, the activation was inactive: -14.1%.

Regarding `CS(=O)(=O)c1ccc(S(=O)CC(=O)OCc2ccccc2)c([N+](=O)[O-])c1` (stereo unspecified), the activation is inactive: -16.2%.

`O=Nc1c(-c2c(O)[nH]c3ccccc23)[nH]c2ccccc12`: the activation was inactive: -2.66% and inactive: -5.48%.

As for `CCc1nnc(NC(=O)c2nc(S(=O)(=O)Cc3ccc(C)cc3)ncc2Cl)s1`, the activation is inactive: -10.2% and inactive: -18.7%.

With `C#C[C@@]1(O)CCC2C3CCC4=CC(=O)CCC4C3CC[C@@]21CC` (stereo partly specified), the activation is inactive: -1.71%.

Regarding `COc1cc(N[C@@H](C)CCCN)c2ncccc2c1`, the activation is inactive: -11.6%.

For the molecule `COc1ccc(CCN2CCC(Nc3nc4ccccc4n3Cc3ccc(F)cc3)CC2)cc1`, the activation was inactive: -8.89% [middle of 5 runs].

In the case of `CC[C@@H](C)[C@H]1O[C@]2(CC[C@H]1C)C[C@@H]1C[C@@H](CC=C(C)[C@@H](O[C@H]3C[C@H](OC)[C@@H](O[C@H]4C[C@H](OC)[C@@H](O)[C@H](C)O4)[C@H](C)O3)[C@@H](C)C=CC=C3CO[C@@H]4[C@H](O)C(C)=C[C@@H](C(=O)O1)[C@]34O)O2`, the activation is inactive: -11.7%.

As to `O=C(CNCCC1=CCCCC1)Nc1ccc(N2CCCCCC2)cc1`, the activation was inactive: -15.3%.

On to `Cc1nc2ccc(-c3nc4cc(N)ccc4o3)cc2[nH]1`, for which the activation is inactive: -14%.

On to `CC(=O)OC[C@H]1O[C@@H](Sc2cccc3cccnc23)[C@H](OC(C)=O)[C@@H](OC(C)=O)[C@@H]1OC(C)=O`, for which the activation was inactive: -4.83%.

In the case of `N#CC1=C(N)C(C#N)(C#N)[C@H](c2cccnc2)[C@H]2CN(C(=O)OCc3ccccc3)CC=C12`, the activation was inactive: -0.664%.

As to `COc1cc(/C=C(\C#N)C(=O)Nc2nnc(C(F)(F)F)s2)ccc1OCc1ccc(C(F)(F)F)cc1C(F)(F)F`, the activation is inactive: -2.28%.

As for `O=C(OCC(F)(F)F)c1cccc(COc2ccc3ccccc3c2)c1`, the activation was inactive: -15%.

As to `O=C(NCCc1ccccc1)c1ccc2c(c1)OCCCO2`, the activation is inactive: -18.6%.

Turning to `CCOc1ccc(NC(=O)c2cnsn2)cc1`, the activation is inactive: -13.3%.

In the case of `CC(C)(C)OC(=O)C[C@H]1C/C=C\C[C@@H](CC(=O)N[C@@H](CO)Cc2ccccc2)C(=O)NC[C@@H](c2ccccc2)OC1=O`, the activation is inactive: -1.71%.

In the case of `CC(C)C[C@H](N)c1nnc(S(=O)(=O)Cc2ccc(F)cc2)o1`, the activation was inactive: -15.1%.

For the molecule `CCCOC(=O)c1ccc(Oc2c(-c3ccc(OC)cc3O)n[nH]c2C)cc1`, the activation was inactive: -18.6%.

For the molecule `CCN(Cc1ccccc1)C(=O)COC(=O)c1n[nH]c2ccccc12`, the activation is inactive: -18.5%.

`CCOc1ccc(C(=O)CCN2CCCCCC2)cc1`: the activation was inactive: -17%.

Regarding `COc1ccc(C(=O)Nc2ccc3ccccc3n2)c(OC)c1OC`, the activation was inactive: -12.4%.

On to `CN(C)c1ccc(/C=C2/C(=O)Nc3ccccc32)cc1`, for which the activation was inactive: -7%.

Consider `Cc1ccc(-n2[nH]c(C)c(C=Nc3ccc4[nH]c(=O)[nH]c4c3)c2=O)cc1C`, for which the activation was inactive: -14.2%.

`CCOC(=O)c1c(C)[nH]c(C(=O)CSc2ccccc2)c1C`: the activation is inactive: -14.2%.

Take `CC(C(=O)O)c1ccc(N2Cc3ccccc3C2=O)cc1` (stereo unspecified): the activation was inactive: -11% and inactive: -12.1%.

Consider `Cc1cccc(C#Cc2ccccc2)n1`, for which the activation was inactive: -0.726% [middle of 4 runs].

As to `CC1=C(C)CS(=O)N(S(=O)(=O)c2ccc(Cl)cc2)C1` (stereo unspecified), the activation is inactive: -17.1%.

Regarding `N#CC1=C(N)Oc2n[nH]c(-c3cccs3)c2C1c1cccnc1` (stereo unspecified), the activation is inactive: -14.6%.

Consider `C=CC[C@@H](CC(=O)OC(C)(C)C)C(=O)OC[C@@H]1CCCN1C(=O)[C@H](CC=C)CC(=O)NCCO`, for which the activation is inactive: 2.79%.

For the molecule `Cc1noc(C)c1S(=O)(=O)N(C)C[C@H]1OCc2cnnn2CCCC(=O)N([C@H](C)CO)C[C@@H]1C`, the activation was inactive: 2.25%.

For the molecule `COc1c(-c2ccc(O)c(O)c2)oc2cc(O)cc(O)c2c1=O`, the activation was inactive: -3.24%.

Turning to `O=c1cc(-c2ccc(O)c(O)c2)oc2cc(O[C@@H]3O[C@H](CO)[C@@H](O)[C@H](O)[C@H]3O)cc(O)c12`, the activation was inactive: -7.07% and inactive: 2.74%.

For the molecule `CCSC1(SCC)N=C(N)C2(C#N)C(c3ccc(F)cc3)C12C#N` (stereo unspecified), the activation was inactive: -18.5%.

Consider `CC(C)(C)OC(=O)C[C@H]1C/C=C\C[C@@H](CC(=O)N[C@H](CO)Cc2ccccc2)C(=O)NC[C@H](c2ccccc2)OC1=O`, for which the activation is inactive: -4.47%.

For the molecule `O=C(OCn1ncc(Br)c(Br)c1=O)c1ccccc1Cl`, the activation was inactive: -17.1%.

For `O=C(CS(=O)c1ccc(C(F)(F)F)cc1[N+](=O)[O-])Oc1ccccc1` (stereo unspecified), the activation was inactive: -17.3%.

Turning to `O=C(/C=C\c1ccc(O)c(O)c1)O[C@@H]1C[C@](O)(C(=O)O)C[C@@H](O)[C@@H]1O`, the activation is inactive: -3.13%.

For the origin of these results see PubChem BioAssay AID602332 (National Center for Advancing Translational Sciences (NCATS), 2012).
